Molecules are shown by their SMILES. The campaign covered roughly 39,000 compounds. About 220 (0.56%) showed activity. The list shows a part of the results.
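Further: static incubation at 37 °C against the wild-type strain, values averaged over two biological replicates.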

The test relates to Escherichia coli K-12 BW25113. In words: relative growth (OD600 normalised to plate interquartile mean) (fraction); higher = less growth inhibition, active = 0.2 or less. The following applies: 50 µM; LB; incubation time: overnight (16-24 h).
For the compound `CN1C(=O)c2cc(NC(=O)c3cnccn3)ccc2OC[C@H]2O[C@H](CC(=O)N[C@H]3CCN(Cc4ccccc4)C3)CC[C@@H]21`, the relative growth was inactive: 0.976. The same measure for `C[C@H]1COC(=O)[C@@H](Cc2ccc(F)cc2)CC=CC[C@@H](CC(=O)N[C@H](CO)Cc2ccccc2)C(=O)N1`: inactive: 0.982; for `C[C@H]1CN([C@@H](C)CO)C(=O)c2cc(Br)cnc2O[C@H]1CN(C)Cc1ccccc1C(=O)O`: inactive: 1.01; for `COCC(=O)Nc1ccc2c(c1)C(=O)N(C)[C@H]1CC[C@@H](CC(=O)N3CCc4ccccc4C3)O[C@@H]1CO2`: inactive: 1. Next, `COc1ccc(CN(C)C[C@H]2OCCCC[C@@H](C)Oc3ccc(NC(=O)Nc4ccc5c(c4)OCO5)cc3C(=O)N([C@@H](C)CO)C[C@@H]2C)cc1`: inactive: 0.974. The same measure for `CC(C)(C)[C@H]1COC(=O)[C@@H](NC(=O)OCC2c3ccccc3-c3ccccc32)CC=CC[C@H](CC(=O)NCCO)C(=O)N1`: inactive: 1.02. Regarding `C[C@@H]1CN([C@H](C)CO)C(=O)c2cc(NS(C)(=O)=O)ccc2O[C@@H]1CN(C)S(=O)(=O)c1cccs1`, the relative growth is inactive: 1.03. The same measure for `O=C(C[C@H]1CC[C@@H]2[C@H](COC[C@H](O)CN2C(=O)c2ccncc2)O1)NCc1ccc(-c2ccccc2)cc1`: inactive: 1.02. As for `C[C@@H]1CN([C@H](C)CO)C(=O)c2cc(NS(=O)(=O)c3ccccc3)ccc2O[C@@H](C)CCCCO[C@@H]1CN(C)S(=O)(=O)c1cn(C)cn1`, the relative growth is inactive: 1.05. The same measure for `CC(C)(C)OC(=O)N1CC(C(=O)O)C1`: inactive: 0.971; for `Cc1ccc(S(=O)(=O)N2C[C@@H](O)COC[C@H]3O[C@H](CC(=O)NCc4cccc(C(F)(F)F)c4)CC[C@@H]32)cc1`: inactive: 1.01.

Regarding `C[C@@H]1CN([C@H](C)CO)C(=O)c2cc(NS(C)(=O)=O)ccc2O[C@@H](C)CCCCO[C@H]1CN(C)C(=O)Nc1ccc(C(F)(F)F)cc1`, the relative growth was inactive: 0.887. With `C[C@@H]1CN([C@@H](C)CO)C(=O)c2cc(NS(C)(=O)=O)ccc2O[C@@H]1CN(C)Cc1ccc(C(F)(F)F)cc1`, the relative growth was inactive: 0.996. The same measure for `C#CC[C@H](c1nc2cc(Cl)ccc2c(=O)n1Nc1ccccc1)N(CCCN)C(=O)c1cccc(Cl)c1F`: inactive: 0.987; for `C[C@H](CO)N1C[C@H](C)[C@H](CN(C)C(=O)CCCN(C)C)OCCCC[C@H](C)Oc2ccc(NC(=O)Nc3ccc(C(F)(F)F)cc3)cc2C1=O`: inactive: 0.964.

For the compound `COc1ccc(S(=O)(=O)N(C)C[C@@H]2Oc3cc(C4=CCCC4)ccc3S(=O)(=O)N([C@H](C)CO)C[C@H]2C)cc1`, the relative growth is inactive: 0.999. The same measure for `CC(C)NC(=O)Nc1ccc2c(c1)C(=O)N([C@@H](C)CO)C[C@@H](C)[C@H](CN(C)S(=O)(=O)c1cn(C)cn1)OCCCC[C@@H](C)O2`: inactive: 0.98. Next, `COc1ccc2c3c(n(c2c1)C)[C@H](CO)N(C[C@]13CCN(CC1)C(=O)Nc1cccc(c1)F)S(=O)(=O)C`: inactive: 0.983; `CC(C)CC#Cc1ccc2c(c1)O[C@H](CN(C)Cc1cncnc1)[C@@H](C)CN([C@H](C)CO)S2(=O)=O`: inactive: 0.994. Next, `C[C@H](CO)N1C[C@H](C)[C@@H](CN(C)S(=O)(=O)c2cccs2)OCCCC[C@H](C)Oc2ccc(NC(=O)NC3CCCCC3)cc2C1=O`: inactive: 1.03. Consider `C[C@@H]1CN([C@H](C)CO)C(=O)c2cccc(NS(C)(=O)=O)c2O[C@H]1CN(C)S(=O)(=O)c1ccc(F)cc1`, for which the relative growth is inactive: 1.01. Next, `COc1ccc(S(=O)(=O)N(C)C[C@H]2Oc3ccc(NS(C)(=O)=O)cc3CC(=O)N([C@@H](C)CO)C[C@@H]2C)cc1`: inactive: 0.916. The same measure for `C=CCNC(=O)[C@H]1[C@@H]2C(=O)O[C@@H](c3ccccc3)[C@@H](c3ccccc3)N2[C@@H](c2ccc(O)cc2)[C@]12C(=O)N(C(=O)OCCOC)c1ccc(C#CC3=CCCCC3)cc12`: inactive: 1.06; for `C[C@@H]1CN([C@@H](C)CO)C(=O)c2cc(NC(=O)CCCN(C)C)ccc2O[C@H]1CN(C)S(=O)(=O)c1cn(C)cn1`: inactive: 1; for `C[C@H]1CCCCO[C@H](CN(C)Cc2ccc(C(=O)O)cc2)[C@@H](C)CN([C@@H](C)CO)C(=O)c2cc(NC(=O)Nc3ccccc3)ccc2O1`: inactive: 1. As to `C[C@H](CO)N1C[C@H](C)[C@@H](CN(C)Cc2ccc3c(c2)OCCN3C)OCc2cnnn2CCCC1=O`, the relative growth is inactive: 0.994. Next, `C[C@@H]1CCCCO[C@H](CN(C)C(=O)c2ccccc2)[C@@H](C)CN([C@H](C)CO)C(=O)c2cc(NC(=O)Cc3ccccc3)ccc2O1`: inactive: 0.993. Next, `C[C@@H]1CN([C@@H](C)CO)C(=O)c2cc(NC(=O)Nc3ccccc3)ccc2O[C@@H](C)CCCCO[C@@H]1CN(C)Cc1ccncc1`: inactive: 0.965. The same measure for `C[C@@H]1CN([C@H](C)CO)C(=O)c2cccc(NC(=O)c3ccncc3)c2O[C@@H]1CN(C)S(=O)(=O)c1ccccc1`: inactive: 0.979.

As to `O=C(C[C@H]1CC[C@@H]2[C@H](COC[C@@H](O)CN2C(=O)Nc2ccc(Cl)c(Cl)c2)O1)NCc1ccc(Cl)c(Cl)c1`, the relative growth is inactive: 0.971.

Turning to `O=C(OC[C@H]1O[C@@H](OC(=O)c2cc(O)c(O)c(O)c2)[C@H](OC(=O)c2cc(O)c(O)c(O)c2)[C@@H](OC(=O)c2cc(O)c(O)c(O)c2)[C@@H]1OC(=O)c1cc(O)c(O)c(O)c1)c1cc(O)c(O)c(O)c1`, the relative growth is inactive: 0.537. For `Cc1ccc(S(=O)(=O)Nc2ccc3c(c2)C(=O)N([C@@H](C)CO)C[C@H](C)[C@@H](CN(C)C(=O)CCC(F)(F)F)OCCCC[C@H](C)O3)cc1`, the relative growth was inactive: 0.979. The same measure for `C[C@H]1CCCCO[C@H](CN(C)CC2CCCCC2)[C@@H](C)CN([C@@H](C)CO)C(=O)c2cc(NC(=O)Cc3ccccc3)ccc2O1`: inactive: 0.995; for `COC(=O)CCCCCCC(=O)N/N=C/[C@H](O)[C@@H](O)[C@H](O)CO`: inactive: 1; for `O=C(C[C@@H]1C=C[C@H](NC(=O)CN2CCOCC2)[C@H](CO)O1)NC1CCCCC1`: inactive: 1.02. As to `CN(C)CC#Cc1ccc([C@H]2[C@@H](CO)N3C(=O)CN(C(=O)CN(C)C)C[C@@H]23)cc1`, the relative growth is inactive: 1.01. Next, `CCS(=O)(=O)NCC[C@H]1CC[C@H](NS(=O)(=O)c2ccccc2C)[C@H](CO)O1`: inactive: 1.01. Next, `Cc1noc(C)c1S(=O)(=O)N(C)C[C@@H]1Oc2ccc(NS(=O)(=O)c3cccs3)cc2CC(=O)N([C@@H](C)CO)C[C@H]1C`: inactive: 1.01. The same measure for `C=CCCCCCCCCC(=O)[O-].C=CCCCCCCCCC(=O)[O-].[Zn+2]`: inactive: 0.885; for `OC[C@@H]1CCCN1`: inactive: 1.01; for `C[C@@H]1CN([C@H](C)CO)C(=O)c2cc(NC(=O)CCC(F)(F)F)ccc2O[C@@H]1CN(C)Cc1ccc(Cl)c(Cl)c1`: inactive: 0.964.

On to `C[C@@H]1CN([C@H](C)CO)C(=O)CCCn2cc(nn2)CO[C@@H]1CN(C)S(=O)(=O)c1ccc2c(c1)OCCCO2`, for which the relative growth was inactive: 0.971. The same measure for `CN1C(=O)c2cc(NC(=O)c3cnccn3)ccc2OC[C@@H]2O[C@H](CC(=O)N[C@@H]3CCN(Cc4ccccc4)C3)CC[C@H]21`: inactive: 1.02; for `C[C@@H]1CCCCO[C@H](CN(C)S(C)(=O)=O)[C@@H](C)CN([C@H](C)CO)C(=O)c2cc(NC(=O)CCCN(C)C)ccc2O1`: inactive: 0.98; for `COC(=O)c1c(CC[C@@H](CO)NC(=O)N[C@@H](Cc2ccccc2)Cn2cc(-c3ccccn3)nn2)oc(C(=O)N2CCOCC2)c1C(=O)OC`: inactive: 0.996. On to `C[C@H]1CN([C@@H](C)CO)C(=O)c2cc(C#CCN(C)C)cnc2O[C@H]1CN(C)S(=O)(=O)c1cn(C)cn1`, for which the relative growth was inactive: 0.984. Next, `COc1ccc(S(=O)(=O)Nc2ccc3c(c2)C(=O)N([C@@H](C)CO)C[C@H](C)[C@@H](CN(C)C(=O)Nc2ccccc2)OCCCC[C@@H](C)O3)cc1`: inactive: 0.999. The same measure for `C[C@@H]1CN([C@@H](C)CO)C(=O)c2cc(NS(=O)(=O)c3cn(C)cn3)ccc2O[C@@H]1CN(C)Cc1ccc2c(c1)OCO2`: inactive: 0.977. Next, `Cc1ccc(N(CC2=NCCN2)c2cccc(O)c2)cc1.Cl`: inactive: 1.03; `C[C@@H]1CN([C@@H](C)CO)C(=O)Cc2cc(NS(C)(=O)=O)ccc2O[C@H]1CN(C)S(=O)(=O)c1cn(C)cn1`: inactive: 1; `CCOC(=O)N1CCC(NS(=O)(=O)c2cccc(S(=O)(=O)[C@H]3CCS(=O)(=O)C3)c2)CC1`: inactive: 0.991. As to `C[C@H](CO)N1C[C@H](C)[C@@H](CN(C)C(=O)Nc2ccc(C(F)(F)F)cc2)Oc2ccc(NC(=O)Nc3cccc4ccccc34)cc2C1=O`, the relative growth is inactive: 1.01.

Take `O=C(C[C@@H]1CC[C@@H](NC(=O)c2ccc(F)cc2)[C@H](CO)O1)NCc1ccncn1`: the relative growth was inactive: 1.02. Next, `C[C@H](CO)N1C[C@H](C)[C@H](CN(C)S(C)(=O)=O)Oc2c(NS(C)(=O)=O)cccc2C1=O`: inactive: 0.968; `C[C@H]1CCCCO[C@H](CN(C)Cc2ccccc2)[C@@H](C)CN([C@@H](C)CO)C(=O)c2cc(NS(=O)(=O)c3ccc(Cl)cc3)ccc2O1`: inactive: 0.993; `Cc1noc(C)c1NC(=O)N(C)C[C@H]1Oc2ccc(NC(=O)NC(C)C)cc2CC(=O)N([C@H](C)CO)C[C@@H]1C`: inactive: 1. The same measure for `C[C@H](CO)N1C[C@H](C)[C@H](CN(C)CC2CC2)Oc2ccc(NS(=O)(=O)c3cn(C)cn3)cc2CC1=O`: inactive: 0.99; for `COc1ccc(C#Cc2ccc3c(c2)O[C@@H](CN(C)C(=O)CN2CCOCC2)[C@H](C)CN([C@@H](C)CO)S3(=O)=O)cc1`: inactive: 1.01.

The record behind these values is the supplement of paper PMC9446081.
